Out of some 310,000 compounds screened, about 2,200 (0.71%) showed an effect of 50% or more. The effect is printed as a negative number. The list shows a part of the results.
These compounds were tested against human ether-à-go-go-related gene (hERG) potassium channel (human, UniProt Q12809) (assay: primary screen, population patch clamp on CHO cells stably expressing hERG).
human ether-à-go-go-related gene (hERG) potassium channel, sequence (Q12809 whole entry, looked up): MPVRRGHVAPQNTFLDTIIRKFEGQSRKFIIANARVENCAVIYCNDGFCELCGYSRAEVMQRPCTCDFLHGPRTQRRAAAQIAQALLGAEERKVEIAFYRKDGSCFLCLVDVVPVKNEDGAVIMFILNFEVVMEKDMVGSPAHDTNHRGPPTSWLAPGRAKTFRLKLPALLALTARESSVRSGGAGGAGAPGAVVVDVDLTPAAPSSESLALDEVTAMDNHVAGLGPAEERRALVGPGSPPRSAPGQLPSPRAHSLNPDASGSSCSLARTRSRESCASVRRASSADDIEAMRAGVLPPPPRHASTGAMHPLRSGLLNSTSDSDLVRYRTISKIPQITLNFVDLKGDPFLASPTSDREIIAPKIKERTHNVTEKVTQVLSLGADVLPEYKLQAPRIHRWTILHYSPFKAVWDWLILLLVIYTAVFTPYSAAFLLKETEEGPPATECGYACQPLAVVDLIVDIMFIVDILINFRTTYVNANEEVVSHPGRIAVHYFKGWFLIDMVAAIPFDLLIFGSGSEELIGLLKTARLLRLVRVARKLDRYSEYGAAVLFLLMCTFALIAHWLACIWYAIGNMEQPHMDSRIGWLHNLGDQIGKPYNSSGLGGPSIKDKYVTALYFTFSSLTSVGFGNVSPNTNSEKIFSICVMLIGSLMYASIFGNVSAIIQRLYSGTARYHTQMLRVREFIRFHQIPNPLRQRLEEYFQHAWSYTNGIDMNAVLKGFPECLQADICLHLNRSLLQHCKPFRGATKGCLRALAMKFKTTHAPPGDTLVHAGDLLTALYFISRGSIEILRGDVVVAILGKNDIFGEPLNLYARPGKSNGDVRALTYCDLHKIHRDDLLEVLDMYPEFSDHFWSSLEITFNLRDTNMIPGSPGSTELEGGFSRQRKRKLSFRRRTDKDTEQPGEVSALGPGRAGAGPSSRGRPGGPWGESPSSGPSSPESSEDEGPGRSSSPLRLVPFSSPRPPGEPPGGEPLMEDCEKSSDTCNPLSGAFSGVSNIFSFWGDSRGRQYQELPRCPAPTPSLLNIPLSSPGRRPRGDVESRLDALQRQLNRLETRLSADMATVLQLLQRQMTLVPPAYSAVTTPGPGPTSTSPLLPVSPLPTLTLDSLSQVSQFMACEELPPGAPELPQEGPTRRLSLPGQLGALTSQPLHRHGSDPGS
With `O=C(Cn1ncc2c3ccccc3n(Cc3ccc(Cl)cc3)c2c1=O)NCCCN1CCCC1=O` the “hERG current change (%, negative = inhibition) at 1uM” value was 1.67%. With `CN(C)C(=O)CSCc1c(Cl)cccc1Cl` the “hERG current change (%, negative = inhibition) at 1uM” value was -0.0762%. `CCCC(C)C(=O)N(Cc1ccccc1)c1ccccn1` (stereo not shown) was tested, and the “hERG current change (%, negative = inhibition) at 1uM” value was 8.24%. `OC(c1ccccc1)C1CN(Cc2ccccc2)CCC1(O)c1ccccc1` (stereo not shown) was tested, and the “hERG current change (%, negative = inhibition) at 1uM” value was 8.57%. With `CN1C(=O)c2ccc(C(=O)Nc3ccc(Br)cn3)cc2C1=O` the “hERG current change (%, negative = inhibition) at 1uM” value was 2.35%. For `COc1ccc(Cl)cc1NC(=O)CC1CCCC1`, the “hERG current change (%, negative = inhibition) at 1uM” value was 10.1%. In the case of `COC(=O)Cn1c(=NC(=O)c2cc(OC)c(OC)c(OC)c2)sc2cc(OC)ccc21`, the “hERG current change (%, negative = inhibition) at 1uM” value is reported as 12%. With `Cc1ccc(-n2c3c(cc(C(=O)NCc4ccco4)c2=O)C(=O)CCC3)cc1` the “hERG current change (%, negative = inhibition) at 1uM” value was 9.66%. For `CCc1ccc(C(=O)NCc2cnn(C)c2)s1`, the “hERG current change (%, negative = inhibition) at 1uM” value was -7.29%. With `COc1ccc(/C=C2/SC(=O)N(CC(=O)Nc3cc(C)on3)C2=O)cc1OC` the “hERG current change (%, negative = inhibition) at 1uM” value was 3.08%. `O=C1CC(NCc2ccncc2)C(=O)N1c1ccccc1` (stereo not shown) was tested, and the “hERG current change (%, negative = inhibition) at 1uM” value was 10.1%. `COC(=O)c1cc(Nc2cc(C)c3ccc(O)cc3n2)cc(C(=O)OC)c1` was tested, and the “hERG current change (%, negative = inhibition) at 1uM” value was 10.9%. In the case of `COc1ccccc1CCC(=O)OCC(=O)Nc1ccc(C)c(S(=O)(=O)N2CCCCC2)c1`, the “hERG current change (%, negative = inhibition) at 1uM” value is reported as 13%. With `CCCCc1c(C)nc2cc(-c3ccco3)[nH]n2c1=O` the “hERG current change (%, negative = inhibition) at 1uM” value was 0.37%. In the case of `CC(C)(C)C(=O)O/N=C1\CCS(=O)(=O)c2sccc21`, the “hERG current change (%, negative = inhibition) at 1uM” value is reported as -0.763%. For `Cn1c(=O)c(C(=O)c2ccccc2)nc2ccccc21`, the “hERG current change (%, negative = inhibition) at 1uM” value was 6.57%. With `Cc1ccc(C(=O)NCCNC(=O)c2ccco2)cc1C` the “hERG current change (%, negative = inhibition) at 1uM” value was 12.7%. `COC(=O)c1ccc(CSc2nnnn2C)o1` was tested, and the “hERG current change (%, negative = inhibition) at 1uM” value was 12.4%. `O=C(Nc1nccs1)c1cc(-c2ccccc2)nc2ccccc12` was tested, and the “hERG current change (%, negative = inhibition) at 1uM” value was 11.1%. `CCOC(=O)C1=C(O)/C(=C/c2ccc(OCC(=O)O)c(OC)c2)SC1=Nc1ccc(OC)cc1` was tested, and the “hERG current change (%, negative = inhibition) at 1uM” value was 6.59%. With `O=C(NC1CCCC1)C1CC(O)CN1C(=O)Nc1ccccc1` (stereo not shown) the “hERG current change (%, negative = inhibition) at 1uM” value was 7.65%. For `C/C=C/c1cc(CN2CCN(c3ccccc3)CC2)c(O)c(OC)c1`, the “hERG current change (%, negative = inhibition) at 1uM” value was 5.36%. In the case of `CCOC(=O)C1=C(C)NC(=O)NC1c1cccc(O)c1` (stereo not shown), the “hERG current change (%, negative = inhibition) at 1uM” value is reported as 17.9%. For `CN(C(=O)COC(=O)c1ccc2[nH]c3c(c2c1)CCCC3)C1CCS(=O)(=O)C1` (stereo not shown), the “hERG current change (%, negative = inhibition) at 1uM” value was 3.09%. `CCOC(=O)c1cc2c(=O)n3ccccc3nc2n(CCOC)c1=NC(=O)c1c(-c2c(F)cccc2Cl)noc1C` was tested, and the “hERG current change (%, negative = inhibition) at 1uM” value was 8.75%. `O=C(c1noc2c1CCCC2)N1CCCC(N2CCN(c3ccccc3F)CC2)C1` (stereo not shown) was tested, and the “hERG current change (%, negative = inhibition) at 1uM” value was -1.37%. For `O=C(Nc1ccc(OC(F)(F)F)cc1)N1CCN(c2ccnc3cc(Cl)ccc23)CC1`, the “hERG current change (%, negative = inhibition) at 1uM” value was -4.71%. With `Cn1c2ccccc2c2nnc(SCC(=O)NC3CCCC3)nc21` the “hERG current change (%, negative = inhibition) at 1uM” value was 13.1%. `CCC(=O)Nc1ccc(S(=O)(=O)NCc2ccco2)cc1` was tested, and the “hERG current change (%, negative = inhibition) at 1uM” value was -1.3%. `O=c1c2cc(Br)ccc2[nH]c(=S)n1Cc1cccnc1` was tested, and the “hERG current change (%, negative = inhibition) at 1uM” value was 15.6%. `COc1ccc(CCNC(=O)C(=O)NCC2OCCN2S(=O)(=O)c2cccs2)cc1OC` (stereo not shown) was tested, and the “hERG current change (%, negative = inhibition) at 1uM” value was 3.06%. For `O=C1NN(c2ccccc2)C(=O)C2C1C1C=CC2C12CC2` (stereo not shown), the “hERG current change (%, negative = inhibition) at 1uM” value was 9.05%. `CCN(CC)CC(O)CN(c1ccccc1)S(=O)(=O)c1ccc2ccccc2c1.Cl` (stereo not shown) was tested, and the “hERG current change (%, negative = inhibition) at 1uM” value was -78.5%. `CC(C)(C)[C@H]1C=C(C(=O)N2CCN(Cc3ccccc3)CC2)O[C@@H](OCCCCO)C1` was tested, and the “hERG current change (%, negative = inhibition) at 1uM” value was 4.2%. For `COc1ccc(CN2CCN(C(=O)c3ccc4nc(N5CCOCC5)sc4c3)CC2)c(OC)c1OC`, the “hERG current change (%, negative = inhibition) at 1uM” value was 4.28%. In the case of `O=C(COc1ccccc1[N+](=O)[O-])Nc1cccc(Cl)c1N1CCOCC1`, the “hERG current change (%, negative = inhibition) at 1uM” value is reported as -6.04%. In the case of `O=C(COC(=O)COc1ccccc1F)NCCc1ccc(F)cc1`, the “hERG current change (%, negative = inhibition) at 1uM” value is reported as 7.94%. For `O=C(COC(=O)C1=COCCO1)Nc1ccccc1`, the “hERG current change (%, negative = inhibition) at 1uM” value was 20.5%. In the case of `CCC(Sc1nc2sc(C(=O)OC)c(C)c2c(=O)n1N)C(=O)NCC1CCCO1` (stereo not shown), the “hERG current change (%, negative = inhibition) at 1uM” value is reported as -6.36%. In the case of `COC(=O)COc1ccc(S(=O)(=O)Nc2ccccc2C(=O)OC)cc1`, the “hERG current change (%, negative = inhibition) at 1uM” value is reported as 7.07%. In the case of `CC(C)(C)c1ccc(C(CC(=O)O)NC(=O)Cc2ccc(Cl)cc2)cc1` (stereo not shown), the “hERG current change (%, negative = inhibition) at 1uM” value is reported as 13.5%. In the case of `COc1ccc(Cc2nc(-c3cccc(C)c3)no2)cc1`, the “hERG current change (%, negative = inhibition) at 1uM” value is reported as -2.93%. For `Cc1ccc(S(=O)(=O)C2(C(=O)Nc3ccc(F)cc3)CC2)cc1`, the “hERG current change (%, negative = inhibition) at 1uM” value was 3.69%. For `COc1cccc(OC)c1OCC(O)CN1CCN(c2ccccc2)CC1.Cl` (stereo not shown), the “hERG current change (%, negative = inhibition) at 1uM” value was -1.11%. For `C/C(N)=C(/C#N)C(=O)COC(=O)c1ccccc1C(=O)c1ccc(C)cc1`, the “hERG current change (%, negative = inhibition) at 1uM” value was 5.48%. `CCOc1ccc(C(=O)NCc2ccncc2)cc1` was tested, and the “hERG current change (%, negative = inhibition) at 1uM” value was 10.5%. In the case of `O=C(O)/C(=C\c1ccc(Br)cc1)c1ccc(S(=O)(=O)N2CCCCC2)s1`, the “hERG current change (%, negative = inhibition) at 1uM” value is reported as 8.02%. `N#CCO/N=C(\c1ccccc1)c1ccncc1` was tested, and the “hERG current change (%, negative = inhibition) at 1uM” value was 15.2%. `CCOCCCNc1ccc(-c2ccccc2)nn1` was tested, and the “hERG current change (%, negative = inhibition) at 1uM” value was 10.5%. With `CCCCOc1ccc(-c2cc(C(=O)NNC(=S)NCC)c3ccccc3n2)cc1` the “hERG current change (%, negative = inhibition) at 1uM” value was 0.45%. `CC(=O)N1N=C(c2ccc(C)o2)CC1c1cccc(F)c1` (stereo not shown) was tested, and the “hERG current change (%, negative = inhibition) at 1uM” value was 15.9%. `Cc1cnc(NC(=O)C(C)N2CCN(C)CC2)s1.O=C(O)C(=O)O` (stereo not shown) was tested, and the “hERG current change (%, negative = inhibition) at 1uM” value was 11.3%. For `C=CCn1c(NC(=O)c2ccco2)nc2ccccc21`, the “hERG current change (%, negative = inhibition) at 1uM” value was 13.7%. With `CCCC(=O)Nc1cccc(-c2nc3ccccc3o2)c1` the “hERG current change (%, negative = inhibition) at 1uM” value was 10.5%. With `CCC(=O)c1cn(Cc2ccccc2)c2ccccc12` the “hERG current change (%, negative = inhibition) at 1uM” value was 7.53%. For `CCC(NC(=O)c1cc(COc2cncc(Cl)c2)on1)c1ccncc1` (stereo not shown), the “hERG current change (%, negative = inhibition) at 1uM” value was 14.3%. In the case of `c1ccc(Cc2nnc3sc(-c4ccco4)nn23)cc1`, the “hERG current change (%, negative = inhibition) at 1uM” value is reported as 7.98%. With `COc1cccc(CN2CCN(CC(=O)Nc3ccccc3Cl)CC2)c1` the “hERG current change (%, negative = inhibition) at 1uM” value was -39.6%.
